The campaign covered roughly 310,000 compounds. About 2,200 (0.71%) showed an effect of 50% or more. The effect is printed as a negative number. This is one part of the list.
Each compound was assayed against human ether-à-go-go-related gene (hERG) potassium channel (human, UniProt Q12809) (assay: primary screen, population patch clamp on CHO cells stably expressing hERG).
Chain of human ether-à-go-go-related gene (hERG) potassium channel (Q12809 whole entry, looked up): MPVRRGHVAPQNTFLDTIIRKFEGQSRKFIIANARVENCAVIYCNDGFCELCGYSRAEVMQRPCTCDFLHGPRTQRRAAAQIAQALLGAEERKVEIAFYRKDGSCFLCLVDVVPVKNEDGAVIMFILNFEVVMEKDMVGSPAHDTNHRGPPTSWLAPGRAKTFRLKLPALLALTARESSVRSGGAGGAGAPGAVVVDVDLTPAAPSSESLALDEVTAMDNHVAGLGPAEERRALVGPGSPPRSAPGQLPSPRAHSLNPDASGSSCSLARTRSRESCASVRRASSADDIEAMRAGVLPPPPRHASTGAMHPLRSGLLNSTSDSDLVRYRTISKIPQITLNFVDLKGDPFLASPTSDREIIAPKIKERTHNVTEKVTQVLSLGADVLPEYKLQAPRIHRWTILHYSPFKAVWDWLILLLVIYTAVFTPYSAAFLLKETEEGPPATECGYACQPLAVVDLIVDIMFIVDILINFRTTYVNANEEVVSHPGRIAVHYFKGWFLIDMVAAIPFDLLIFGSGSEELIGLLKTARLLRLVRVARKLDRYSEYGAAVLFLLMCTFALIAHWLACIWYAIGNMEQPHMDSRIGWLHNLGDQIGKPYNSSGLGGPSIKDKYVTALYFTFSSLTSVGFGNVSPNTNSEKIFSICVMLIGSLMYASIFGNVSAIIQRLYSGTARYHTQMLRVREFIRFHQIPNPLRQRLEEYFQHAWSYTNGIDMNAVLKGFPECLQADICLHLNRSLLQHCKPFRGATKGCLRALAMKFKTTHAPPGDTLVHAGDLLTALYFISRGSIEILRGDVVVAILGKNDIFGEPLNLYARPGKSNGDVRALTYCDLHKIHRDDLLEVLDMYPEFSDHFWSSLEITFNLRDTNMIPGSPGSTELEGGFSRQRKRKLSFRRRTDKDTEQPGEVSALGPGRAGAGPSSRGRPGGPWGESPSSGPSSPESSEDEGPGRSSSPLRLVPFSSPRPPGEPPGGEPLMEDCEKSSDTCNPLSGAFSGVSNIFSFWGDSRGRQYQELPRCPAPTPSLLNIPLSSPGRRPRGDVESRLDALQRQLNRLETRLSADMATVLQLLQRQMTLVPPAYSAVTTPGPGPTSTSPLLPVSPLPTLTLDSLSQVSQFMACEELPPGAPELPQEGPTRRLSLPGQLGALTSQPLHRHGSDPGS

SMILES	hERG current change (%, negative = inhibition) at 1uM
c1coc(-c2ccnc3nc(-n4cccc4)nn23)c1	-3.11%
CCOC(=O)c1c(NC(=O)CSc2nc3nc(C)cc(C)n3n2)sc(CC)c1C	14.4%
S=C(NCCc1ccc(Cl)cc1)NC1CCCC1	16.1%
Cc1ccc(C(=O)Cn2nnc3ccccc32)cc1	14%
O=C1C(Cl)=C(NCC2CCCO2)C(=O)N1c1cccc(Cl)c1Cl (centres unmarked)	6.78%
O=S(=O)(NN=C1CCCCCC1)c1ccc(Cl)cc1	6.87%
CCOC(=O)CN(C(=O)CSc1nnc(COc2ccc(OC)cc2)n1CC)c1ccccc1	-7.97%
Cc1cc(=O)oc2cc(OCc3cc4c(cc3Cl)OCO4)ccc12	9.07%
Cc1cnc(C(=O)OCC(=O)Nc2sc3c(c2C(N)=O)CCCC3)cn1	10.3%
CC1CCCN(C(=O)COC(=O)C2CCN(S(=O)(=O)c3ccc4c(c3)OCCO4)CC2)C1 (centres unmarked)	-0.0808%
O=C(NCCN1CCOCC1)c1ccc(Cl)c(Cl)c1	12.1%
O=C(CCc1c[nH]c2ccccc12)N1CCN(S(=O)(=O)c2ccccc2)CC1	0.842%
C#CCNC(=O)C1=C[C@@H](C)C[C@@H](OCc2ccc(CO)cc2)O1	14.5%
Cc1ccc(CC2C(=O)N(c3ncccn3)C(=O)C2C)cc1 (centres unmarked)	14.4%
O=C(Nc1ccccc1)c1cc2n(n1)C(C(F)(F)F)CC(C1CC1)N2 (centres unmarked)	1.94%
Cc1c(CC(=O)N2CCC(C(N)=O)CC2)c(=O)oc2cc3c(cc12)CCC1(CCCCC1)O3	8.44%
O=C(COc1ccc(S(=O)(=O)Nc2ccccc2)cc1)NCc1cccnc1	12.9%
Cn1c(SCC(=O)NC2CCS(=O)(=O)C2)nnc1-c1ccco1 (centres unmarked)	10.3%
O=C1CSC(c2cccs2)N1c1ccccc1 (centres unmarked)	12.2%
COc1cccc(CNC(=O)Cc2ccc(-c3ccccc3)cc2)c1	11.3%
CCOc1ccc(/C=C2\SC(=S)N(N3C(=O)C4CC4C3=O)C2=O)cc1 (centres unmarked)	1.67%
Cc1cc(NC(=O)CCC(=O)N(c2ccc(F)cc2)C(C(=O)NC2CCCC2)c2ccncc2)no1 (centres unmarked)	21.3%
O=C(COC(=O)C1(c2cccc(F)c2)CCCC1)NCc1cccs1	13.9%

SMILES	hERG current change (%, negative = inhibition) at 1uM
CCOC(=O)/C(C#N)=C\c1ccco1	13%
CCCC(=O)Nc1nn(C)c2nc3ccc(C)cc3cc12	15.4%
COc1cnn(C(C)(C)C)c(=O)c1Cl	13.8%
O=C(COC(=O)c1nsc(Cl)c1Cl)NC1CCCCC1	14.1%
CCC1CCC(N2CCN(c3ccc([N+](=O)[O-])cc3)CC2)CC1 (centres unmarked)	-74.5%
CCCN1CCC(NC(=O)CCc2nnc(-c3ccccc3)o2)CC1	0.295%
Cc1oc(/C=N/NC(=O)CN(c2ccccc2Br)S(C)(=O)=O)cc1Br	8.91%
Cn1c(=O)n(Cc2ccccc2)c2ccccc21	9.25%
Cc1cccc(NC(=O)C(=O)NCC2CCCO2)c1 (centres unmarked)	13.7%
Cc1ccc(Nc2nc(COC(=O)C3CC3)cs2)cc1	11.1%
CCOC(=O)C1CCN(C2=NC(=O)/C(=C/c3ccc(OC)c(OC)c3)S2)CC1	9.87%
Cc1c(O)ccc(C(=O)CN2C(=O)c3ccccc3C2=O)c1O	16.4%
O=C1C(=C2CCCCC2)SC(=S)N1Cc1ccco1	-0.779%
Cc1cc(N2CCN(C)CC2)nc(-c2ccccc2O)n1	-0.898%
COc1ccc(-c2nnn(Cc3nc(N)nc(N4CCOCC4)n3)n2)cc1OC	3.65%
CCCC(=O)Nc1sc(C)c(-c2ccc(OC)cc2)c1C#N	11.4%
CCCCN=C1SC(C(=O)Nc2sc3c(c2C(=O)OC)CCC3)C(N)=C1C(=O)N1CCOCC1 (centres unmarked)	-0.508%
COc1cc(/C=C2/C(=O)ON=C2C)cc(Cl)c1O	10.5%
CC(=O)c1ccc(OC(=O)C2c3ccccc3Oc3ccccc32)cc1	7.66%
CCN(c1ccccc1)S(=O)(=O)c1cccc(C(=O)O)c1	6.99%
COc1ccc(N2CCN(CC(=O)N3c4ccccc4CC3C)CC2)cc1.O=C(O)C(=O)O (centres unmarked)	-10.7%
O=C(NNc1c(F)c(F)cc(F)c1F)c1ccc(Cl)nc1	23.7%
CC/C(=N\NC(=O)c1nnn(-c2nonc2N)c1CN(C)c1ccccc1)c1ccccc1	13.4%

SMILES	hERG current change (%, negative = inhibition) at 1uM
CCC(=O)c1cn(CCOc2ccccc2OC)c2ccccc12	17.7%
CNC(=O)CS(=O)CC(=O)Nc1cc(OC(C)C)c(Cl)cc1Cl (centres unmarked)	13.3%
CCc1sc(C(=O)Nc2cccc(-n3cnnn3)c2)cc1C	2.55%
O=C(COC(=O)c1ccncc1)Nc1ccccc1	9.42%
Cc1ccc(N(CC(=O)NCC2CCCO2)C(=O)CCC(=O)Nc2cc(C)on2)cc1 (centres unmarked)	17.9%
NC(=O)c1c(NC(NC(=O)c2ccco2)C(=O)c2ccc(Cl)cc2)sc2c1CCCC2 (centres unmarked)	7.66%
COc1ccc(C2CC(c3cccs3)=NN2C(=O)CSc2nc(=O)n3ccccc3n2)cc1 (centres unmarked)	-11.7%
C=Cn1cc[n+](CC(=O)C(C)(C)C)c1.[Br-]	15.7%
C=CCn1c(CNC(=O)c2ccco2)nnc1SCC(=O)Nc1cccc(Br)c1	-14.6%
CCN(CC)C(=O)c1ccc(Nc2nnc(-c3ccc(O)cc3)c3ccccc23)cc1	17%
Cc1cc2occ(CC(=O)NC3CCCc4ccccc43)c2cc1C (centres unmarked)	5.04%
Cn1c(N2CCCCC2)nc2c1c(=O)[nH]c(=O)n2C	-2.9%
O=C(Nc1ccc(Cl)c(S(=O)(=O)N2CCOCC2)c1)c1cn2ccccc2n1	12.6%
CN(C(=O)c1ccc(NC(=O)Cc2cccc([N+](=O)[O-])c2)cc1)C1CC1	15.7%
CCOC(=O)c1c(C)[nH]c(C(=O)COC(=O)C(C)N2C(=O)C3CCCCC3C2=O)c1C (centres unmarked)	8.24%
O=C(CC1C(=O)NCCN1Cc1ccc(Cl)c(F)c1)NCC1CCOCC1 (centres unmarked)	10.8%
CCOC(=O)C1CCCN(C(=O)CSc2ccc(NC(C)=O)cc2)C1 (centres unmarked)	8.95%
Nc1nc(-c2ccc(Cl)cc2)c(N=Nc2ccc(S(=O)(=O)N3CCOCC3)cc2)s1	0.0157%
O=C(C1CCN(Cc2ccc(Cl)cc2)CC1)N1CCN(C(c2ccccc2)c2ccccc2)CC1	11%
COc1cccc(N2CCN(c3ccc4nnc(CCC(=O)Nc5ncccc5C)n4n3)CC2)c1	9.78%
CC(C)CCC(CC(C)O)C(=O)NNC(=S)Nc1ccccc1 (centres unmarked)	9.01%
O=[N+]([O-])c1ccccc1Oc1ncccc1[N+](=O)[O-]	21%
COc1ccccc1C(=O)NCCCCNC(=O)c1ccccc1OC	9.03%

SMILES	hERG current change (%, negative = inhibition) at 1uM
Cc1cccc(C)c1NC(=O)CS(=O)CC(=O)NC1CCN(Cc2ccccc2)CC1 (centres unmarked)	7.87%
CCOc1ccc(NC(=S)N2C3CCCC2CC(NC(=O)C2CC2)C3)cc1 (centres unmarked)	3.39%
Cc1cccc(-c2cc3nc(C)cc(NCCCN(C)C)n3n2)c1	1.77%
CC(=O)c1cc(F)c(N2CCN(C(=O)Cc3ccccc3)CC2)cc1C	4.07%
Cc1cc(C)n(C(C)CC(=O)Nc2ccc3c(c2)OCCO3)n1 (centres unmarked)	-1.68%
CC(CCC(=O)O)C1CCC2C3C(O)CC4CC(O)CCC4(C)C3CC(O)C12C (centres unmarked)	14.6%
OCc1nnn(-c2ccccc2)c1CO	12.4%
Cc1ccccc1-c1cc(C(=O)N2CCCC2)c2ccccc2n1	-19.6%
COc1cccc(CNC(=O)c2nnn(CC(=O)Nc3cc(Cl)ccc3C)c2N)c1	11.1%
O=C(Nc1sc2c(c1C(=O)NCCCO)CCCC2)c1ccccc1	11.2%
Cc1cc(C)cc(NC(=O)NNC(=O)c2cc3occc3[nH]2)c1	5.1%
Nc1ccccc1Nc1nc2ccccc2[nH]1	1.82%
CC(C)(C)OC(=O)n1cc(CCO)c2ccccc21	11.1%
COC(=O)c1ccc2c(=O)n(CCN3CCOCC3)c(SCC(=O)C(C)(C)C)nc2c1	-14.2%
COC(=O)C1=C(N)Oc2cc(C)[nH]c(=O)c2C1c1cccnc1 (centres unmarked)	17.5%
Cc1ccc(OCCOc2ccc(S(=O)(=O)N3CCCC3)cc2C(N)=O)cc1	3.42%
CC(C)N(C)Cc1nnnn1CC(=O)NCc1cc(F)cc(C(F)(F)F)c1	8.5%
CCOC(=O)c1c(NC(=O)c2cc(C)on2)c2cc([N+](=O)[O-])ccc2n1C	17.4%
CCC(C)[C@H](NC(=O)C1CC(=O)N(c2ccc(OC)cc2)C1)C(=O)N1CCCCC1 (some centres unmarked)	13.5%
O=C(c1ccc(Cl)cc1)N1CCCCC(Sc2nnc(-c3ccc4c(c3)OCO4)o2)C1=O (centres unmarked)	16.5%
